Assay results taken from PubChem BioAssay AID686979 (National Center for Advancing Translational Sciences (NCATS), 2013).
About 50,000 (12%) of roughly 420,000 compounds were called active. The inconclusive results got no clear call from the source; some entries with a clear call stand among them for comparison. The call rests on the fitted dose curve; in most records, active means well fitted inhibition curve with a large enough effect; inconclusive means small, poorly fitted or top-dose-only effect; inactive means flat fitted curve, though single readings scatter. No potency is given beside an inconclusive call; the fits are too rough.

Assay: qHTS for Inhibitors of human tyrosyl-DNA phosphodiesterase 1 (TDP1): qHTS in cells in presence of CPT; further: nearly all actives have a fitted effect of over 55% in size
Details: chicken DT40 Tdp1-/-;hTDP1 cells + 20 nM CPT, ATP luminescence, 48 h; activity change, negative = growth inhibition: at 46.2 µM (top of the series) unless noted
Method in brief: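 Chicken DT40 Tdp1-/- cells complemented with human TDP1, 400 cells/well, exposed to compounds plus 20 nM camptothecin for at least 48 h at 37 C; viability read as ATP content by CellTiter-Glo luminescence.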
On the % scale 0 is the no-effect control and ±100 the full control effect; potency means the concentration at half of the fitted maximal effect; tags describe the fitted curve by direction and shape.

| SMILES | Potency | activity change, negative = growth inhibition |
| --- | --- | --- |
| CCC1CN(C(=O)N2CCC(C(=O)NCCc3ccc(Cl)cc3)CC2)c2ccccc2O1 (stereo unspecified) | active: 16.4 µM |  |
| CC(=O)N1CCN=C1SCc1ccc(C)cc1 | inactive |  |
| COC/C=C/C1=CC2=CC(=O)C(C)(OC(=O)c3cnc4ccccc4n3)C(=O)C2=CN1c1ccc(OC)cc1 (stereo unspecified) | inconclusive [inhibitor, single point] |  |
| CCCn1c(SCc2nc(-c3ccc(OC)cc3OC)no2)nnc1-c1ccc(Cl)cc1 | active: 20.6 µM |  |
| c1csc(C(c2nnnn2C2CCCCC2)N2CCCC3(CCCCC3)C2)c1 (stereo unspecified) | inconclusive [inhibitor, single point] |  |
| CCCn1c(SCC(=O)N2CCCc3ccccc32)nnc1-c1ccccn1 | inconclusive [inhibitor, single point] |  |
| CN(CC(=O)Nc1c(Cl)cccc1Cl)C(=O)CNC(=O)c1sc2ccccc2c1Cl | inconclusive [inhibitor, single point] |  |
| N#Cc1nc(-c2ccccc2Cl)oc1N1CCCCC1 | inconclusive [inhibitor, single point] |  |
| CC1(C)CC2CN(C(=O)Cc3ccccc3)C(C)(C2)C1 (stereo unspecified) | inconclusive [inhibitor, single point] |  |
| CCOC(=O)Cn1c(CN(Cc2ccccc2)Cc2ccccc2)nc2c1c(=O)[nH]c(=O)n2C | inconclusive [inhibitor, single point] |  |
| O=C(CSc1ccncc1)Nc1ccc(S(=O)(=O)Nc2nccs2)cc1 | inactive |  |
| CCN(CC)c1ccc(NS(=O)(=O)c2ccc(-c3cnc(C4CC4)o3)cc2)c(C)c1 | active: 11.6 µM |  |
| Cc1ccc(OCC(=O)N2CCC(C)CC2)c([N+](=O)[O-])n1 | inactive |  |
| Cc1noc(C)c1S(=O)(=O)N(CC(=O)NCc1ccc2c(c1)OCO2)c1ccc(C(C)C)cc1 | inconclusive [inhibitor, single point] |  |
| COc1ccc(-c2noc(CN(C(=O)COc3cc(C)c(Br)c(C)c3)C(C)C)n2)cc1 | active: 18.4 µM |  |
| O=C(CSc1nc2c([nH]c3ccccc32)c(=O)n1-c1ccccc1F)NCC1CCCO1 (stereo unspecified) | inconclusive [inhibitor, single point] |  |
| O=[N+]([O-])c1cc([N+](=O)[O-])c(Oc2ccccc2F)cc1NN1CCCCC1 | inconclusive [inhibitor, single point] |  |
| Cn1c(SCc2ccc(F)cc2)nc2ccc(C(=O)NCc3ccc(Cl)cc3)cc21 | inconclusive [inhibitor, single point] |  |
| C[C@@H]1CN([C@H](C)CO)C(=O)c2cccc(NC(=O)NC3CCCCC3)c2O[C@@H]1CN(C)C(=O)Nc1ccc(C(F)(F)F)cc1 | active: 16.4 µM |  |
| COc1cc(/C=C/C(=O)c2ccc(NS(=O)(=O)c3ccc(C)cc3)cc2)ccc1OC(F)F | inconclusive [inhibitor, single point] |  |
| CCOc1ccc(CCN2C(=S)N([C@@H](Cc3ccc(O)cc3)CN3CCC[C@@H]3CN3C(=S)NC[C@@H]3CC(C)C)C[C@@H]2Cc2ccc(O)cc2)cc1 | active: 5.17 µM |  |
| O=C(NNc1ccccn1)c1ccccc1CC[N+](=O)[O-] | inactive |  |

| SMILES | Potency | activity change, negative = growth inhibition |
| --- | --- | --- |
| O=C(NCc1nc2ccccc2[nH]1)C1=C[C@H](c2ccc3c(c2)OCO3)C[C@H](OCCCCO)O1 | inconclusive [inhibitor, partial curve, poor fit] |  |
| COc1ccccc1N1CCN(c2ccc3c(c2)S(=O)(=O)c2cccc(C(=O)NCc4ccc(F)cc4)c2C3=O)CC1 | inconclusive [inhibitor, full curve] |  |
| COC(=O)c1scc(-c2ccc(C)cc2)c1S(=O)(=O)Nc1cc(Cl)ccc1C | inconclusive [inhibitor, single point] |  |
| Cn1c(=O)c(=O)n(C)c2cc(N3CCOCC3)c(NS(=O)(=O)c3ccc(Cl)cc3)cc21 | inconclusive [inhibitor, partial curve] |  |
| Cc1nn(Cc2ccc(F)cc2)c(C)c1NC(=O)c1cc(CC(C)C)on1 | active: 20.6 µM |  |
| Cc1ccc(NC(=O)COc2coc(CN3CCc4ccccc4C3)cc2=O)cc1Cl | inconclusive [inhibitor, single point] |  |
| CC(C)Sc1nc2ccccc2n1CC(=O)O | inactive |  |
| O=C(CCN1C(=O)C2C3C=CC(C3)C2C1=O)N1CCN(c2cccc(Cl)c2)CC1 (stereo unspecified) | active: 16.4 µM |  |
| CCc1ccc(-c2csc(NC(=O)C3=COCCO3)n2)cc1 | active: 11.6 µM |  |
| COc1ccc(CSc2nc(CSC)cc(N3CCOCC3)n2)cc1 |  | inconclusive: -34.2% [inhibitor] |
| Cc1ccc(C(=O)N/N=C2\CCc3ccccc32)c(C)c1 | inconclusive [inhibitor, single point] |  |
| Cc1ccc(C(=O)N2CC(C)CC(C)C2)cc1NC1=NC2CS(=O)(=O)CC2S1 (stereo unspecified) | inactive |  |
| CCOC(=O)c1[nH]c2c(c1Cc1ccccc1)C(=O)CC(c1ccc(Cl)cc1)C2 (stereo unspecified) | active: 16.4 µM |  |
| O=C(NCCC(c1ccccc1)c1ccccc1)c1cnc2sccn2c1=O | inconclusive [inhibitor, single point] |  |
| O=C(c1cc(-c2cccc3ccccc23)nc2ccccc12)N1CCN(CCO)CC1 | inconclusive [inhibitor, single point] |  |
| Cc1cc(C)c2c(N)c(C(=O)c3ccc(Cl)cc3)sc2n1 | inconclusive [inhibitor, single point] |  |
| N#CC1=C(SCC(=O)c2ccc(Cl)cc2)NC2=C(C(=O)CCC2)C1c1ccco1 (stereo unspecified) | active: 5.17 µM |  |
| Cc1ccc(CC(=O)Nc2ccc(S(=O)(=O)Nc3ncccn3)cc2)cc1 | inactive |  |
| CCc1ccc(S(=O)(=O)c2cn(CC(=O)Nc3ccc(C)cc3)c3ccccc3c2=O)cc1 | inactive |  |
| COc1cccc(NC(=O)Nc2ccc(Br)cn2)c1 |  | inconclusive: -31.7% [inhibitor] |
| N#C/C(=C/c1ccc(N2CCCCC2)o1)C(=O)NCCc1c[nH]c2ccccc12 | inconclusive [inhibitor, single point] |  |
| O=c1[nH]c(=O)n(C2OC(CO)C(O)C2O)cc1Br (stereo unspecified) | inconclusive [inhibitor, single point] |  |

| SMILES | Potency | activity change, negative = growth inhibition |
| --- | --- | --- |
| Cc1nn(CCCC(=O)Nc2ccc(Br)cc2F)c(C)c1[N+](=O)[O-] | inconclusive [inhibitor, single point] |  |
| Cc1ccc(S(=O)(=O)N2CCN(c3ncnc4scc(-c5ccc(F)cc5)c34)CC2)cc1 | inconclusive [inhibitor, single point] |  |
| COc1ncccc1C(=O)N1CCCC(N2CCN(c3ccc(F)cc3)CC2)C1 (stereo unspecified) | inconclusive [inhibitor, single point] |  |
| Cn1c(CNc2nc(-c3ccccc3)cs2)nnc1SCC(=O)N1CCc2ccccc21 | inconclusive [inhibitor, single point] |  |
| C=C1C(=C/C=C2\CCC[C@]3(C)[C@@H]([C@H](C)/C=C/[C@H](C)C(C)C)CC[C@@H]23)C[C@@H](O)C[C@@H]1O | inconclusive [inhibitor, partial curve, poor fit] |  |
| COc1cccc(CNC2CCCC2)c1 | inactive |  |
| Cc1ccccc1NC(=O)C(C)OC(=O)CNS(=O)(=O)c1ccc(C#N)cc1 (stereo unspecified) | inactive |  |
| Cc1c(N2C(=O)CSC2c2ccco2)c(=O)n(-c2ccccc2)n1C (stereo unspecified) | inactive |  |
| O=[N+]([O-])c1ccc(Cl)c(S(=O)(=O)/N=C(/Sc2ccc(Br)cc2)c2ccccc2)c1 | active: 6.31 µM |  |
| CC(=O)c1ccc(N2CCN(S(=O)(=O)c3cccc4nsnc34)CC2)cc1 | inconclusive [inhibitor, partial curve] |  |
| CCOC(=O)c1cc2c(=O)n3ccccc3nc2n(Cc2ccco2)c1=NC(=O)c1cccnc1 | inconclusive [inhibitor, full curve, poor fit] |  |
| COc1ccc(NC(=O)c2cnc3sccn3c2=O)cc1 | inactive |  |
| COCCOC(=O)c1c(C)n(S(=O)(=O)c2ccc(C)cc2)c2ccc(NS(=O)(=O)c3ccc(C)cc3)cc12 | inconclusive [inhibitor, single point] |  |
| CCOC(=O)C1=CCC(c2ccccc2)N(S(=O)(=O)c2ccccc2[N+](=O)[O-])C1 (stereo unspecified) | inconclusive [inhibitor, single point] |  |
| O=C(O)c1ccc(Nc2nc(-c3cccnc3)cs2)cc1O | inactive |  |
| O=S(=O)(NCCc1nnc2ccc(SCc3ccc(Cl)cc3Cl)nn12)c1ccccc1 | inconclusive [inhibitor, single point] |  |
| Fc1ccccc1NC(=S)N/N=C/c1ccccc1Br | inconclusive [inhibitor, single point] |  |
| O=C(CSc1nnc(COc2ccc(Cl)cc2)n1Cc1ccco1)c1ccccc1F | inconclusive [inhibitor, single point] |  |
| CCOC(=O)c1ccc(NC(=O)c2c(NC(C)=O)sc3c2CCC(C)C3)cc1 (stereo unspecified) | inconclusive [inhibitor, single point] |  |
| Cn1c(NC(=O)C[n+]2cc(-c3ccccc3)n3c2CCC3)cc(=O)n(C)c1=O | inactive |  |
| CCOc1ccc(CCNC(=O)c2ccc3c(Cl)c4c(nc3c2)CCCC4)cc1 | inconclusive [inhibitor, single point] |  |
| COC(=O)c1nc(NC(=O)C(C)C)n[nH]1 | inconclusive [inhibitor, full curve, poor fit] |  |
